Measured values from PubChem BioAssay AID493208 (National Center for Advancing Translational Sciences (NCATS), 2011).
Hit rate of the full screen: of about 44,000 compounds, about 340 (0.77%) were called active. Not shown: some 5% with an inconclusive outcome. Calls come from the whole dose curve; as a rule, active = well fitted inhibition curve with a large enough effect; inconclusive = small, poorly fitted or top-dose-only effect; inactive = flat fitted curve, though single readings scatter. This is one part of the list.

Assay: Acumen qHTS Assay for Inhibitors of the mTORC1 Signaling Pathway in MEF (Tsc2-/-, p53-/-) Cells: Sytravon;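 note: plate controls were DMSO for no effect and rapamycin for full effect; nearly all actives have a fitted effect of over 50% in size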
Conditions: phospho-rpS6 immunofluorescence/PI, 24 h; series mostly up to 38.3 µM; activity change, negative = inhibition: at the top concentration
Summary of the method: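 Tsc2-/-, p53-/- mouse embryonic fibroblasts (empty-vector line) exposed to compound 24 hrs at 37 C, fixed, immunostained for phospho-rpS6 and counterstained with propidium iodide. Acumen laser scanning gives % positive cells from Alexa 488/PI ratio, thresholded using 7.5 nM rapamycin; PI count gives viability.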

Compound	activity change, negative = inhibition
CCOc1ccc(NC(=O)C(=O)NCCc2csc3nc(-c4ccccc4F)nn23)cc1	inactive: -13.8%
Cc1ccc(CN2CCN(C3CCN(S(=O)(=O)c4ccc(C)cc4)CC3)C(=O)C2=O)cc1	inactive: -7.92%
COc1cc(NC(=O)C(CC(C)C)NS(=O)(=O)c2ccc3c(c2)oc(=O)n3C)c(C(=O)O)cc1OC (stereo not given)	inactive: -6.92%
CCOC(=O)c1ccc(NC(=O)c2csc3c2CCCCC3)cc1	inactive: 1.73%
CCOc1ccc(NC(=O)Cn2cc(C(=O)c3ccc(C)c(C)c3)c(=O)c3cc(OC)c(OC)cc32)cc1	inactive: -8.23%
COc1ccc(CCn2c3c(c(=O)[nH]c2=O)C(NC(=O)c2ccccc2OC)(C(F)(F)F)C(=O)N3)cc1OC (stereo not given)	inactive: -0.477%
COc1cc(C(=O)Nc2ccc(NC(=O)c3ccc(Br)cc3)cc2)cc(OC)c1OC	inactive: -2.59%
CCC1CCCCN1C(=O)CSc1nc2c([nH]c3ccccc32)c(=O)n1-c1cccc(OC)c1 (stereo not given)	inactive: -8.87%
Cc1ccc(-n2ccnc(NCCc3ccc(S(N)(=O)=O)cc3)c2=O)cc1C	inactive: 0%
Cc1oc(-c2cccc(Cl)c2)nc1CSc1nc2ncccc2[nH]1	inactive: 1.3%
O=C(COc1ccccc1Cl)Nc1ccc(Cl)c(-c2nc3ccccc3o2)c1	inactive: 1.55%
O=C(O)c1ccc2nc(-c3cc4cc(F)ccc4oc3=O)[nH]c2c1	inactive: -0.484%
Cc1cccc(N2CCN(C(=O)c3cc4c(=O)n(C)c5ccccc5c4s3)CC2)c1C	inactive: -2.4%
COc1ccccc1N1CCN(C(=O)c2cn(C)c3ccc(S(=O)(=O)N(C)C4CCCCC4)cc3c2=O)CC1	inactive: 1.26%
CCOc1ccc(NC(=O)c2cnn(-c3ccc(C)c(C)c3)c2C2CCN(C(=O)OC(C)(C)C)CC2)cc1	inactive: 0.869%
CCOc1ccc(Nc2nc3c(S(=O)(=O)c4cccc(Cl)c4)nnn3c3ccsc23)cc1	inactive: -14.4%
CC1=C(C(=O)Nc2ccccc2)C(c2ccc(C(=O)O)cc2)n2ncnc2N1 (stereo not given)	inactive: -6.81%
CCc1ccc(OCC(=O)N(Cc2ccco2)Cc2ccccc2Cl)cc1	inactive: -2.44%
CCOC(=O)c1cnc2c(ccc3ccccc32)c1Nc1cccc(C(F)(F)F)c1	inactive: -8.33%
Cc1ccc(NC(=O)CCCn2c(=O)c3cccn3c3ccccc32)c(C)c1	inactive: -4.03%
Cc1ccc(C(=O)NCC(c2ccc3c(c2)OCO3)N2CCN(C)CC2)cc1C (stereo not given)	inactive: -8.35%
CCc1noc(-c2ccc(NCc3ccccc3)c([N+](=O)[O-])c2)n1	inactive: 1.41%
N=c1c(C(=O)NCC2CCCO2)cc2c(=O)n3ccccc3nc2n1CCCO (stereo not given)	inactive: -13.6%
COc1ccc(Cn2c(C(=O)O)c(CNCCc3ccco3)c3ccc(C)cc32)cc1	inactive: -6.26%

Compound	activity change, negative = inhibition
COc1ccc(F)cc1S(=O)(=O)NCC(c1ccco1)S(=O)(=O)c1ccc(F)cc1 (stereo not given)	inactive: -4.51%
CCOc1cc(C(=O)NCCc2csc3nc(-c4ccccc4F)nn23)cc(OCC)c1OCC	inactive: 5.31%
Cc1ccccc1OCC(=O)Nc1ccccc1C(=O)OCc1cc(=O)n2ccsc2n1	inactive: -14%
Cc1cc(C(F)F)n2nc(C(=O)Nc3cccc(Cl)c3C)nc2n1	inactive: 7.09%
COc1ccc2c(c1)c1c(c(=O)n(-c3ccccc3)c(=O)n1CC(=O)NCCC1=CCCCC1)n2C	inactive: -0.18%
Cn1ncc2c(NCc3ccccc3Cl)nc(NCCO)nc21	inactive: 5.94%
O=C(Nc1ccc(-n2nncc2-c2ccccc2)cc1)c1cccc(F)c1	inactive: -25.1%
O=C(CN1C(=O)CCn2nc(-c3ccccc3)cc21)NCc1ccc(F)cc1	inactive: 3.93%
CCOc1ccc(CNC(=O)C2CCN(S(=O)(=O)c3cn(C)cn3)CC2)cc1	inactive: 0%
Cc1cc(C)cc(NC(=O)Cn2c(=O)n(-c3cc(C)cc(C)c3)c(=O)c3oc4ccccc4c32)c1	inactive: -0.168%
Cc1nc2ccccc2n2c(-c3ccccc3)c3c(=O)n(C)c(=O)n(C)c3c12	inactive: 3.48%
Cc1ccccc1N(C)S(=O)(=O)c1nnc(NC(=O)c2ccccc2F)s1	inactive: -7.62%
COc1ccc(-n2ccnc2SCC(=O)Nc2nnc(C)s2)cc1	inactive: -7.15%
Cc1ccc(NC(=O)C(=O)NCCc2sc(-c3ccc(Cl)cc3)nc2C)cc1C	inactive: -8.43%
COc1cccc(Cn2c(CNC(=O)CCc3ccccc3)nc3cccnc32)c1	inactive: 0.4%
Cc1ccc(S(=O)(=O)NCCc2csc(-c3ccc(Cl)cc3)n2)cc1	inactive: -9.71%
Cc1c(Cl)cccc1NC(=O)CCS(=O)(=O)c1ccc2c(c1)oc(=O)n2C	inactive: 5.25%
COc1cccc(CNC(=O)CCn2nc(C)c3c(C)n(-c4ccccc4)nc3c2=O)c1	inactive: 1%
CN(c1ccccc1)S(=O)(=O)c1nnc(NC(=O)C2CCCCC2)s1	inactive: -2.41%
COc1cccc(C(=O)N(Cc2cccnc2)c2nc3c(OC)ccc(C)c3s2)c1OC	inactive: -3.07%
CCOC(=O)c1c(C)c(C(=O)NCc2ccc(OC)cc2)c(C)n1CC	inactive: -4.74%
COc1ccc(NCc2cc3cc4c(cc3n(CC(=O)Nc3ccc(F)cc3)c2=O)OCCO4)cc1	inactive: 0.0523%
O=C(CSc1nc2ccccc2nc1Cc1ccc(Cl)cc1)N1CCCc2ccccc21	inactive: -0.567%
COC(=O)C(C)Sc1nc2c(cnn2-c2ccc(F)cc2)c(=O)[nH]1 (stereo not given)	inactive: 8.77%

Compound	activity change, negative = inhibition
CCOc1cc(C2CC(=O)Nc3cc4c(cc32)OCCO4)ccc1O (stereo not given)	inactive: -1.48%
Cc1ccc(OCCn2c(CCNC(=O)C3CCCCC3)nc3ccccc32)cc1	inactive: -2.14%
COc1cccc(C(=O)NCc2cn3ccccc3n2)c1	inactive: -0.988%
CCOc1ccc(C(=O)c2cn(CC(=O)Nc3ccc(F)cc3)c3cc4c(cc3c2=O)OCCO4)cc1	inactive: 5.57%
O=C(CSc1nnc(-c2ccccc2)c(-c2ccccc2)n1)NC1CCCC1	inactive: 7.59%
CCOc1ccc(OCC)c(NS(=O)(=O)c2c(C(=O)N3CCCCCC3)c(C)n(C)c2C)c1	inactive: 2.16%
O=C(NCCCO)C(=O)NCC(c1ccc2c(c1)OCO2)N1CCOCC1 (stereo not given)	inactive: -16.5%
CCOC(=O)C1CCCN(S(=O)(=O)c2cc3c4c(c2)CC(=O)N4CCC3)C1 (stereo not given)	inactive: 3.59%
COc1ccc(C2c3c(oc4ccc(C)cc4c3=O)C(=O)N2CCCN2CCOCC2)cc1OC (stereo not given)	inactive: 0.42%
COc1ccc(NC(=O)C2=CC(c3ccc4c(c3)OCO4)=NS(=O)(=O)N2C)cc1	inactive: -0.281%
CCC(C)(C)NC(=O)C1CCN(S(=O)(=O)c2c(C)noc2/C=C/c2ccc(C)cc2)CC1	inactive: -9.5%
CCc1ccc(NC(=O)Cn2c(=O)n(CCCCC(=O)NCCc3ccccc3)c(=O)c3ccccc32)cc1	inactive: 0.683%
COc1ccc(C)cc1NC(=O)C1COc2ccccc2C1 (stereo not given)	inactive: 0.803%
Fc1ccc(-n2cc(-c3ccccc3)c3c(NCCc4ccccc4)ncnc32)cc1	inactive: -7.34%
CCOC(=O)c1c(NC(=O)COc2c(C)cc(Cl)cc2Cl)sc2c1CCCC2	inactive: 4.49%
COc1ccc(-c2noc(CC(=O)Nc3ccc(Br)cc3C)n2)cc1	inactive: -1.95%
COc1ccc(S(=O)(=O)NCC(c2ccc(N(C)C)cc2)N2CCCC2)cc1 (stereo not given)	inactive: 8.33%
COc1cccc(CNC(=O)c2oc3c(c2C)-c2nn(Cc4cccc(Cl)c4)cc2CC3)c1	inactive: 5.35%
Cc1cc(C)c(/C=C/c2onc(C)c2S(=O)(=O)N2CCC(C(=O)N(C)Cc3ccccc3)CC2)c(C)c1	inactive: 0.983%
Cc1ccc(NC(=O)Nc2nnc(N(C)C3CCCCC3)s2)c(Cl)c1	inactive: -0.518%
Cc1ccc(-n2c(=O)c3c4c(sc3n(Cc3ccccc3C)c2=O)CCC4)cc1C	inactive: -29.9%
O=C(Nc1ccc2c(c1)OCO2)c1cc(-c2ccc(Br)cc2)on1	inactive: -9.32%
Cc1ccccc1C(=O)Nc1nc2nc(-c3ccccc3)cc(=O)n2[nH]1	inactive: -1.89%
Clc1cccc(-n2cc(-c3ccccc3)c3c(N4CCCCC4)ncnc32)c1	inactive: 15.3%

Compound	activity change, negative = inhibition
CCN1C(C(=O)c2ccccc2)=C(OC(=O)c2ccc(OC)cc2)c2ccccc2S1(=O)=O	inactive: -5.84%
Cc1ccc(NC(=O)c2oc3ccc(S(=O)(=O)N4CCCCC4)cc3c2C)cc1Cl	inactive: 6.93%
CCN(Cc1ccccc1)C(=O)CCc1c(C)nc2c(c(C)nn2-c2ccc(C)c(C)c2)c1C	inactive: -1.79%
Cn1c(=O)c2c(-c3ccc(Br)cc3)n(CCc3ccccc3)cc2n(C)c1=O	inactive: 0.496%
O=S(=O)(c1ccc(Br)cc1)c1nc(-c2ccco2)oc1SCc1ccccc1Cl	inactive: 0.876%
CCCCOc1ccc(CNC(=O)CN2CCSc3ccccc32)cc1	inactive: -11.7%
Cc1ccc(CCNC(=O)c2nn(C)c3c2CSc2ccccc2-3)cc1	inactive: 1.48%
COc1cccc(CNC(=O)CCn2c(=O)c3cccn3c3ccc(F)cc32)c1OC	inactive: -17.2%
COc1ccc(-n2nc(C(=O)N(C)c3cccc(C(F)(F)F)c3)c3c4ccccc4n(C)c3c2=O)cc1	inactive: -1.65%
CCCNC(=O)C1CCC(Cn2c(=O)c3sccc3n(Cc3cccc(OC)c3)c2=O)CC1 (stereo not given)	inactive: -9.05%
CCC(C(=O)N1CCN(c2cccc(C)c2C)CC1)n1nc(C)c2sc3ccccc3c2c1=O (stereo not given)	inactive: -18.4%
CCn1nnc2cc(C(=O)Nc3cccc(Cl)c3)ccc21	inactive: 0.465%
Cc1nc2nc(NC(=O)c3cccc(Cl)c3)[nH]n2c(=O)c1Cc1ccccc1	inactive: -2.22%
CCOc1ccc(-n2c(-c3ccc(C)cc3)nc3c(cnn3-c3ccccc3)c2=O)cc1	inactive: 13.4%
CCOC(=O)C1CCC(CN(Cc2ccccc2)S(=O)(=O)c2ccc(Cl)cc2)CC1 (stereo not given)	inactive: 0.633%
Cc1ccc(NC(=O)CCn2c(=O)c3cccn3c3ccccc32)c(Cl)c1	inactive: -2.68%
COc1ccc(CCNC(=O)CCc2c(C)nc3c(c(C)nn3-c3ccc(C)c(C)c3)c2C)c(OC)c1OC	inactive: -0.496%
CCOC(=O)c1c(S(=O)(=O)N2CCC(C(=O)Nc3ccccc3OC)CC2)c(C)n(CC)c1C	inactive: 1.98%
COc1ccc(CCNC(=O)Cn2cc(C(=O)c3ccccc3)c(=O)c3ccc(C)nc32)cc1OC	inactive: 5.05%
CCOc1ccc(OCC)c(Nc2nc3ccccc3c3nnc(C)n23)c1	inactive: -5.81%
Cc1ccc2c(c1)c1c(c(=O)n(-c3ccccc3)c(=O)n1CC(=O)N1CCCC1)n2C	inactive: 7.47%
COc1cccc(N2CC(NC(=O)Cc3cccs3)CC2=O)c1 (stereo not given)	inactive: -0.933%
Cc1cc(C)c(Cn2c3ccccc3c3cnn(CC(=O)N4CCCCC4)c(=O)c32)c(C)c1	inactive: -0.454%
